About 6,400 (1.6%) of roughly 410,000 compounds were called active. The shares of active, inactive and inconclusive entries below differ from those in the screen. Calls come from the whole dose curve; as a rule, active = well fitted inhibition curve with a large enough effect; inconclusive = small, poorly fitted or top-dose-only effect; inactive = no such curve, though single readings can be large or run the other way. No potency is given beside an inconclusive call; the fits are too rough.
Target: Glucagon-like peptide 1 receptor (Homo sapiens) (UniProt P43220)
Experiment: qHTS of GLP-1 Receptor Inverse Agonists (Inhibition Mode); note: nearly all actives have a fitted effect of over 55% in size
Details: HEK293 GLP-1R CRE-luciferase, luminescence, 24 h, GLP-1R form is constitutively active; activity change, negative = inhibition: at 38.3 µM (top of the series) unless noted
In short: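 Cells are plated, allowed 12 hours at 37 deg C, then treated with compounds for 24 hr before luciferase detection reagent is added and luminescence is read after 12 min at room temperature. The HEK293 line carries constitutively active GLP-1R with a cAMP-responsive reporter.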
% is set by controls: 0 for no effect and ±100 for the full control effect; potency is the fitted concentration of half-maximal effect; tags give direction and shape of the fitted curve.

Chain of UniProt P43220 (P43220 whole entry, looked up): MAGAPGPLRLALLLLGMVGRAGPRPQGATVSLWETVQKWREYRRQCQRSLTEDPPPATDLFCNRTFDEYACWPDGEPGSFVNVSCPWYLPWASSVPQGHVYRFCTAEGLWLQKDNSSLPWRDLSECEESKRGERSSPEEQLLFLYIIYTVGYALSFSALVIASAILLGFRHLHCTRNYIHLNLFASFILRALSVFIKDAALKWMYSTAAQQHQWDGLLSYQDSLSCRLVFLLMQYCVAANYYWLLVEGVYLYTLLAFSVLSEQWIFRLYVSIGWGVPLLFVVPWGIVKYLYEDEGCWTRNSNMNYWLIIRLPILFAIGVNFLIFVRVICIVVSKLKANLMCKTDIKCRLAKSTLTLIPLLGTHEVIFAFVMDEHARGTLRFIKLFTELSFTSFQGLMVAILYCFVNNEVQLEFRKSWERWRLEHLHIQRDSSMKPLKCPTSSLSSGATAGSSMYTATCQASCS

Structure (SMILES)	Potency	activity change, negative = inhibition
O=C(Nc1cccc([N+](=O)[O-])c1)C1C2CC/C=C\CCC21 (stereo unspecified)	inconclusive [inhibitor, single point]	
Cc1cc(C(=O)N/N=C/c2ccc(N(C)C)o2)cs1		inactive: 50.9%
O=C(Nc1nnc(-c2ccccc2)o1)c1nc2ccccc2s1	inconclusive [inhibitor, single point]	
Brc1cc2c(cc1/C=N/Nc1nc(N3CCCC3)nc(N3CCOCC3)n1)OCO2	inconclusive [inhibitor, single point]	
Cc1ccc(S(=O)(=O)N2CCN(CC(O)CN3CCOCC3)CC2)cc1 (stereo unspecified)	inconclusive [inhibitor, partial curve, poor fit]	
CCCCC(=O)Oc1c(S(=O)(=O)c2ccccc2)c(C)nn1C(C)(C)C	inconclusive [inhibitor, partial curve, poor fit]	
COc1ccc(NC(=O)N2CCCC(c3nc(-c4ccc(F)cc4)no3)C2)cc1 (stereo unspecified)	inconclusive [inhibitor, single point]	
CN(c1ccc(C(=O)N2CCCCC2)cc1)S(=O)(=O)c1ccccc1	inconclusive [inhibitor, partial curve, poor fit]	
COc1ccc(-c2coc3c(C(=O)NCCc4ccccc4)cccc23)c(C)c1	inconclusive [inhibitor, partial curve]	
Cc1cccc(-c2nc(CN3CCCC(C(=O)NC4CCC(C)CC4)C3)c(C)o2)c1 (stereo unspecified)		inactive: 1.1%
c1coc(CSSCc2ccco2)c1		inactive: -4.53%
Cc1ccc(CNc2ccc(-c3nc(-c4ccccn4)no3)cc2[N+](=O)[O-])cc1		inactive: 5.85%
Cc1cc(C)c2cc(C(=O)N3CCN(c4ncccc4C(F)(F)F)CC3)[nH]c2c1	inconclusive [inhibitor, partial curve, poor fit]	
CCOc1ccc(CCNC(=O)CN2C(=O)c3cccnc3Oc3ccc(Cl)cc32)cc1	inconclusive [inhibitor, partial curve, poor fit]	
Cc1ccc(CSCCNC(=O)CCSc2ccccc2)cc1	active: 10 µM	
CC(C)NC(=O)c1ccc2c(c1)N(Cc1ccccc1)C(=O)C(C)(C)O2	inconclusive [inhibitor, partial curve, poor fit]	
CCc1nc(N2CCN(C(=O)CCl)CC2)c2c3c(sc2n1)CC(C)CC3 (stereo unspecified)	inconclusive [inhibitor, single point]	
CC(=O)N1c2ccc(S(=O)(=O)N3CCCCCC3)cc2CC1C(=O)NCc1ccccc1F (stereo unspecified)		inactive: 11.7%
O=C(CCCOc1ccccc1)N1CCN(c2ccc(F)cc2)CC1	inconclusive [inhibitor, partial curve, poor fit]	
COCCCNc1ccn2nc(-c3cccc(OCc4ccccc4)c3)cc2n1	inconclusive [inhibitor, single point]	
CN(/N=C/c1cc(Br)cc(Br)c1O)c1cccc(C(F)(F)F)n1	inconclusive [inhibitor, single point]	
CC(C)CCNC(=O)c1nn(Cc2ccccc2)c(=O)c2ccccc12	inconclusive [inhibitor, partial curve, poor fit]	

Structure (SMILES)	Potency	activity change, negative = inhibition
O=C(CCl)NCc1cc(-c2ccc(Cl)cc2)no1	inconclusive [inhibitor, single point]	
O=C(Nc1ccccc1-c1nnc(SCc2ccccc2Cl)o1)c1ccccc1		inactive: -4.88%
C/C=C(\C)CN1CCN(c2ccc(C)cc2)CC1		inactive: 17.4%
CSc1cccc(NC(=O)Cc2ccccc2[N+](=O)[O-])c1	inconclusive [inhibitor, partial curve, poor fit]	
COc1cccc2oc(-c3ccco3)cc(=O)c12	inconclusive [inhibitor, single point]	
CC(=O)Nc1nnc(SCc2cc(=O)c3cccc(Cl)c3[nH]2)s1		inactive: -1.43%
Cc1cc2nc(-c3ccccc3)c(CC3CCCCC3)n2c(C)c1Br	inconclusive [inhibitor, partial curve, poor fit]	
COc1ccc(-c2nc(N=Nc3ccc(O)cc3)n[nH]2)cc1		inactive: 9.33%
COc1ccc(S(=O)(=O)N2CCN(c3ccc4nnc(-c5ccccc5)n4n3)CC2)cc1		inactive: 27.7%
CCOC(=O)N=S(N)(=O)c1ccc(Cl)cc1 (stereo unspecified)	inconclusive [inhibitor, single point]	
Cc1csc(NC(=O)CSc2nnc(-c3ccccc3)o2)n1		inactive: -11.6%
N#Cc1ncc(Cc2ccccc2)nc1C#N	inconclusive [inhibitor, single point]	
c1ccc(-c2n[nH]c(-c3ccccc3)c2-c2nc3ccccc3[nH]2)cc1	inconclusive [inhibitor, single point]	
Cn1cc(CCCC(=O)NCc2ccccc2Cl)c2ccccc21	inconclusive [inhibitor, single point]	
CC(C)(COC(=O)c1ccccc1)N1CC2CCC(C1)O2	inconclusive [inhibitor, single point]	
Cc1ccc(C)c(CSC2=NCCN2C(=O)Cc2ccc([N+](=O)[O-])cc2)c1	inconclusive [inhibitor, single point]	
CNS(=O)(=O)c1ccc(NC(=O)Nc2ccc3c(c2)OCO3)cc1	inconclusive [inhibitor, single point]	
Cc1ccc(NC(=O)CN2C(=O)c3ccccc3C2=O)cc1		inactive: -14.8%
Oc1ccccc1C1=NN(c2ccccc2)C(c2ccccc2)C1 (stereo unspecified)	inconclusive [inhibitor, partial curve, poor fit]	
Cc1noc(C)c1CSCC(=O)N(C)CC(=O)Nc1ccc(Cl)c(Cl)c1	inconclusive [inhibitor, partial curve, poor fit]	
S=C1NCCc2ccc(Cl)cc2C1c1ccccc1Cl (stereo unspecified)	inconclusive [inhibitor, partial curve, poor fit]	
CCCn1c(SCC(=O)Nc2cccc(S(=O)(=O)NC3=NCCCCC3)c2)nc2ccccc2c1=O	inconclusive [inhibitor, single point]	

Structure (SMILES)	Potency	activity change, negative = inhibition
CN(C)c1cccc(C(=O)Nc2ccc3nc4n(c(=O)c3c2)CCCCC4)c1		inactive: -3.05%
Cc1cccc(-c2nc(CS(=O)CC(=O)NC3CCCC(C)C3C)c(C)o2)c1 (stereo unspecified)	inconclusive [inhibitor, partial curve, poor fit]	
Cc1ccc(NC(=O)CSCc2c(C)noc2C)cc1C	inconclusive [inhibitor, partial curve, poor fit]	
CCOC(=O)c1c(NC(=O)/C=C\C(=O)O)sc(C)c1-c1ccccc1	inconclusive [inhibitor, single point]	
CC(C)(C)OC(=O)C[C@@H]1C/C=C\C[C@H](CC(=O)N[C@H](CO)Cc2ccccc2)C(=O)N[C@@H](Cc2ccccc2)COC1=O	inconclusive [inhibitor, single point]	
CCOC(=O)N1CCC(NC(=O)c2ccc3c(c2)N(Cc2cc(C)ccc2C)C(=O)c2ccccc2S3=O)CC1 (stereo unspecified)	inconclusive [inhibitor, single point]	
COCCNCCCOc1ccc(C(C)(C)c2ccccc2)cc1	inconclusive [inhibitor, partial curve, poor fit]	
COc1cccc(NC(=O)c2nn(C34CC5CC(CC(C5)C3)C4)cc2[N+](=O)[O-])c1	inconclusive [inhibitor, partial curve, poor fit]	
O=C(OCn1ncc(Cl)c(Cl)c1=O)c1ccccc1Cl		inactive: -48.5%
COc1cccc(-c2nc3ccc(C(=O)N4CCCC(O)C4)cc3o2)c1 (stereo unspecified)		inactive: 23.4%
COc1ccccc1Nc1nc(NCc2ccco2)c2ccccc2n1	inconclusive [inhibitor, partial curve, poor fit]	
CN(C(=O)COc1ccc(C(C)(C)C)cc1)C1CCS(=O)(=O)C1 (stereo unspecified)		inactive: 2.36%
CC1=CCC(C(=O)O)(C(=O)N/N=C/c2cccs2)C(c2ccc(Cl)cc2)C1 (stereo unspecified)	inconclusive [inhibitor, single point]	
CC(C)(CCl)C(=O)Nc1ccc(OC(F)(F)F)cc1	inconclusive [inhibitor, single point]	
CC(C)C[C@@H](CNC(=O)OC(C)(C)C)NC(=O)c1nc[nH]c1C(=O)N[C@@H](CC(C)C)C(=O)CNC[C@H](CC(C)C)NC(=O)c1nc[nH]c1C(=O)N[C@@H](Cc1c[nH]c2ccccc12)C(=O)OC(C)(C)C	inconclusive [inhibitor, single point]	
COC(=O)c1ccc(NC(=O)c2cn(-c3ccccc3)nc2-c2ccncc2)cc1	inconclusive [inhibitor, partial curve, poor fit]	
Cc1ccc(C2(CCNCc3ccco3)CCOC(C(C)C)C2)cc1 (stereo unspecified)	inconclusive [inhibitor, single point]	
O=[N+]([O-])c1ccc(Oc2cccc3cccnc23)c(Cl)c1		inconclusive: -73.6% [inhibitor]
CN(C)S(=O)(=O)c1cccc(C(=O)NCCc2ccccc2)c1	inconclusive [inhibitor, single point]	
Cc1ccc(C(=O)Nc2ccc3c(c2)ncn3C)cc1		inactive: -17.9%
Cc1ccc(C2=NN(CC(=O)NCCc3ccc(Cl)cc3)C(=O)CC2)cc1		inactive: -3.84%
CC1CCCC(NC(=O)CSc2ccc(F)cc2)C1C (stereo unspecified)	inconclusive [inhibitor, single point]	

Source: PubChem BioAssay AID624417 (National Center for Advancing Translational Sciences (NCATS), 2012)
